Test results reported in the supplement of paper PMC11876631.
± gives the standard deviation of the averaged measurements. Laboratory Escherichia coli strains with one amino-acid change in an essential protein, pooled on minimal glucose agar with carbenicillin or gentamicin at twice the control MIC (plus kanamycin and chloramphenicol for the plasmids), 48 h. Fold change of barcode share against drug-free plates; higher = less susceptible. Active = above 20 in both replicates (the paper's putatively resistant). '<' = one read or none on drug, '>' = one read or none on a drug-free plate. Shares are relative, so most strains fall below 1 when a few take over. Listed are strains with at least 15 reads on both drug-free plates, and hits; most hits rest on fewer reference reads. Replicate rank correlation about 0.5. Edits are read from barcodes.

B1: pssA V346A (protein)
chain: MLSKFKRNKHQQHLAQLPKISQSVDDVDFFYAPADFRETLLEKIASAKQRICIVALYLEQDDGGKGILNALYEAKRQRPELDVRVLVDWHRAQRGRIGAAASNTNADWYCRMAQENPGVDVPVYGVPINTREALGVLHFKGFIIDDSVLYSGASLNDVYLHQHDKYRYDRYHLIRNRKMSDIMFEWVTQNIMNGRGVNRLDDVNRPKSPEIKNDIRLFRQELRDAAYHFQGDADNDQLSVTPLVGLGKSSLLNKTIFHLMPCAEQKLTICTPYFNLPAILVRNIIQLLREGKKVEIIVGDKTANDFYIPEDEPFKIIGALPYLYEINLRRFLSRLQYYVNTDQLVARLWKDDDNTYHLKGMWVDDKWMLITGNNLNPRAWRLDLENAILIHDPQLELAPQREKELELIREHTTIVKHYRDLQSIADYPVKVRKLIRRLRRIRIDRLISRIL
B2: pssA M260P (protein)
chain: MLSKFKRNKHQQHLAQLPKISQSVDDVDFFYAPADFRETLLEKIASAKQRICIVALYLEQDDGGKGILNALYEAKRQRPELDVRVLVDWHRAQRGRIGAAASNTNADWYCRMAQENPGVDVPVYGVPINTREALGVLHFKGFIIDDSVLYSGASLNDVYLHQHDKYRYDRYHLIRNRKMSDIMFEWVTQNIMNGRGVNRLDDVNRPKSPEIKNDIRLFRQELRDAAYHFQGDADNDQLSVTPLVGLGKSSLLNKTIFHLPPCAEQKLTICTPYFNLPAILVRNIIQLLREGKKVEIIVGDKTANDFYIPEDEPFKIIGALPYLYEINLRRFLSRLQYYVNTDQLVVRLWKDDDNTYHLKGMWVDDKWMLITGNNLNPRAWRLDLENAILIHDPQLELAPQREKELELIREHTTIVKHYRDLQSIADYPVKVRKLIRRLRRIRIDRLISRIL
B3: pssA V346P (protein)
chain: MLSKFKRNKHQQHLAQLPKISQSVDDVDFFYAPADFRETLLEKIASAKQRICIVALYLEQDDGGKGILNALYEAKRQRPELDVRVLVDWHRAQRGRIGAAASNTNADWYCRMAQENPGVDVPVYGVPINTREALGVLHFKGFIIDDSVLYSGASLNDVYLHQHDKYRYDRYHLIRNRKMSDIMFEWVTQNIMNGRGVNRLDDVNRPKSPEIKNDIRLFRQELRDAAYHFQGDADNDQLSVTPLVGLGKSSLLNKTIFHLMPCAEQKLTICTPYFNLPAILVRNIIQLLREGKKVEIIVGDKTANDFYIPEDEPFKIIGALPYLYEINLRRFLSRLQYYVNTDQLVPRLWKDDDNTYHLKGMWVDDKWMLITGNNLNPRAWRLDLENAILIHDPQLELAPQREKELELIREHTTIVKHYRDLQSIADYPVKVRKLIRRLRRIRIDRLISRIL
B4: pssA I370P (protein)
chain: MLSKFKRNKHQQHLAQLPKISQSVDDVDFFYAPADFRETLLEKIASAKQRICIVALYLEQDDGGKGILNALYEAKRQRPELDVRVLVDWHRAQRGRIGAAASNTNADWYCRMAQENPGVDVPVYGVPINTREALGVLHFKGFIIDDSVLYSGASLNDVYLHQHDKYRYDRYHLIRNRKMSDIMFEWVTQNIMNGRGVNRLDDVNRPKSPEIKNDIRLFRQELRDAAYHFQGDADNDQLSVTPLVGLGKSSLLNKTIFHLMPCAEQKLTICTPYFNLPAILVRNIIQLLREGKKVEIIVGDKTANDFYIPEDEPFKIIGALPYLYEINLRRFLSRLQYYVNTDQLVVRLWKDDDNTYHLKGMWVDDKWMLPTGNNLNPRAWRLDLENAILIHDPQLELAPQREKELELIREHTTIVKHYRDLQSIADYPVKVRKLIRRLRRIRIDRLISRIL
B5: pssA L369A (protein)
chain: MLSKFKRNKHQQHLAQLPKISQSVDDVDFFYAPADFRETLLEKIASAKQRICIVALYLEQDDGGKGILNALYEAKRQRPELDVRVLVDWHRAQRGRIGAAASNTNADWYCRMAQENPGVDVPVYGVPINTREALGVLHFKGFIIDDSVLYSGASLNDVYLHQHDKYRYDRYHLIRNRKMSDIMFEWVTQNIMNGRGVNRLDDVNRPKSPEIKNDIRLFRQELRDAAYHFQGDADNDQLSVTPLVGLGKSSLLNKTIFHLMPCAEQKLTICTPYFNLPAILVRNIIQLLREGKKVEIIVGDKTANDFYIPEDEPFKIIGALPYLYEINLRRFLSRLQYYVNTDQLVVRLWKDDDNTYHLKGMWVDDKWMAITGNNLNPRAWRLDLENAILIHDPQLELAPQREKELELIREHTTIVKHYRDLQSIADYPVKVRKLIRRLRRIRIDRLISRIL
B6: pssA I370W (protein)
chain: MLSKFKRNKHQQHLAQLPKISQSVDDVDFFYAPADFRETLLEKIASAKQRICIVALYLEQDDGGKGILNALYEAKRQRPELDVRVLVDWHRAQRGRIGAAASNTNADWYCRMAQENPGVDVPVYGVPINTREALGVLHFKGFIIDDSVLYSGASLNDVYLHQHDKYRYDRYHLIRNRKMSDIMFEWVTQNIMNGRGVNRLDDVNRPKSPEIKNDIRLFRQELRDAAYHFQGDADNDQLSVTPLVGLGKSSLLNKTIFHLMPCAEQKLTICTPYFNLPAILVRNIIQLLREGKKVEIIVGDKTANDFYIPEDEPFKIIGALPYLYEINLRRFLSRLQYYVNTDQLVVRLWKDDDNTYHLKGMWVDDKWMLWTGNNLNPRAWRLDLENAILIHDPQLELAPQREKELELIREHTTIVKHYRDLQSIADYPVKVRKLIRRLRRIRIDRLISRIL
B7: pssA V54A (protein)
chain: MLSKFKRNKHQQHLAQLPKISQSVDDVDFFYAPADFRETLLEKIASAKQRICIAALYLEQDDGGKGILNALYEAKRQRPELDVRVLVDWHRAQRGRIGAAASNTNADWYCRMAQENPGVDVPVYGVPINTREALGVLHFKGFIIDDSVLYSGASLNDVYLHQHDKYRYDRYHLIRNRKMSDIMFEWVTQNIMNGRGVNRLDDVNRPKSPEIKNDIRLFRQELRDAAYHFQGDADNDQLSVTPLVGLGKSSLLNKTIFHLMPCAEQKLTICTPYFNLPAILVRNIIQLLREGKKVEIIVGDKTANDFYIPEDEPFKIIGALPYLYEINLRRFLSRLQYYVNTDQLVVRLWKDDDNTYHLKGMWVDDKWMLITGNNLNPRAWRLDLENAILIHDPQLELAPQREKELELIREHTTIVKHYRDLQSIADYPVKVRKLIRRLRRIRIDRLISRIL
B8: pssA I370D (protein)
chain: MLSKFKRNKHQQHLAQLPKISQSVDDVDFFYAPADFRETLLEKIASAKQRICIVALYLEQDDGGKGILNALYEAKRQRPELDVRVLVDWHRAQRGRIGAAASNTNADWYCRMAQENPGVDVPVYGVPINTREALGVLHFKGFIIDDSVLYSGASLNDVYLHQHDKYRYDRYHLIRNRKMSDIMFEWVTQNIMNGRGVNRLDDVNRPKSPEIKNDIRLFRQELRDAAYHFQGDADNDQLSVTPLVGLGKSSLLNKTIFHLMPCAEQKLTICTPYFNLPAILVRNIIQLLREGKKVEIIVGDKTANDFYIPEDEPFKIIGALPYLYEINLRRFLSRLQYYVNTDQLVVRLWKDDDNTYHLKGMWVDDKWMLDTGNNLNPRAWRLDLENAILIHDPQLELAPQREKELELIREHTTIVKHYRDLQSIADYPVKVRKLIRRLRRIRIDRLISRIL
B9: pssA I370Q (protein)
chain: MLSKFKRNKHQQHLAQLPKISQSVDDVDFFYAPADFRETLLEKIASAKQRICIVALYLEQDDGGKGILNALYEAKRQRPELDVRVLVDWHRAQRGRIGAAASNTNADWYCRMAQENPGVDVPVYGVPINTREALGVLHFKGFIIDDSVLYSGASLNDVYLHQHDKYRYDRYHLIRNRKMSDIMFEWVTQNIMNGRGVNRLDDVNRPKSPEIKNDIRLFRQELRDAAYHFQGDADNDQLSVTPLVGLGKSSLLNKTIFHLMPCAEQKLTICTPYFNLPAILVRNIIQLLREGKKVEIIVGDKTANDFYIPEDEPFKIIGALPYLYEINLRRFLSRLQYYVNTDQLVVRLWKDDDNTYHLKGMWVDDKWMLQTGNNLNPRAWRLDLENAILIHDPQLELAPQREKELELIREHTTIVKHYRDLQSIADYPVKVRKLIRRLRRIRIDRLISRIL
B10: pssA L369W (protein)
chain: MLSKFKRNKHQQHLAQLPKISQSVDDVDFFYAPADFRETLLEKIASAKQRICIVALYLEQDDGGKGILNALYEAKRQRPELDVRVLVDWHRAQRGRIGAAASNTNADWYCRMAQENPGVDVPVYGVPINTREALGVLHFKGFIIDDSVLYSGASLNDVYLHQHDKYRYDRYHLIRNRKMSDIMFEWVTQNIMNGRGVNRLDDVNRPKSPEIKNDIRLFRQELRDAAYHFQGDADNDQLSVTPLVGLGKSSLLNKTIFHLMPCAEQKLTICTPYFNLPAILVRNIIQLLREGKKVEIIVGDKTANDFYIPEDEPFKIIGALPYLYEINLRRFLSRLQYYVNTDQLVVRLWKDDDNTYHLKGMWVDDKWMWITGNNLNPRAWRLDLENAILIHDPQLELAPQREKELELIREHTTIVKHYRDLQSIADYPVKVRKLIRRLRRIRIDRLISRIL
B11: psd I257W (protein)
chain: MLNSFKLSLQYILPKLWLTRLAGWGASKRAGWLTKLVIDLFVKYYKVDMKEAQKPDTASYRTFNEFFVRPLRDEVRPIDTDPNVLVMPADGVISQLGKIEEDKILQAKGHNYSLEALLAGNYLMADLFRNGTFVTTYLSPRDYHRVHMPCNGILREMIYVPGDLFSVNHLTAQNVPNLFARNERVICLFDTEFGPMAQILVGATIVGSIETVWAGTITPPREGIIKRWTWPAGENDGSVALLKGQEMGRFKLGSTVWNLFAPGKVNLVEQLESLSVTKIGQPLAVSTETFVTPDAEPAPLPAEEIEAEHDASPLVDDKKDQV
B12: psd I257Q (protein)
chain: MLNSFKLSLQYILPKLWLTRLAGWGASKRAGWLTKLVIDLFVKYYKVDMKEAQKPDTASYRTFNEFFVRPLRDEVRPIDTDPNVLVMPADGVISQLGKIEEDKILQAKGHNYSLEALLAGNYLMADLFRNGTFVTTYLSPRDYHRVHMPCNGILREMIYVPGDLFSVNHLTAQNVPNLFARNERVICLFDTEFGPMAQILVGATIVGSIETVWAGTITPPREGIIKRWTWPAGENDGSVALLKGQEMGRFKLGSTVQNLFAPGKVNLVEQLESLSVTKIGQPLAVSTETFVTPDAEPAPLPAEEIEAEHDASPLVDDKKDQV

Target: Escherichia coli (laboratory strain)
Assay: barcode share on antibiotic plates over drug-free plates; higher = less susceptible
Conditions: antibiotic: carbenicillin; 2× MIC (3.1 µg/mL)
Protocol: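 A pool of E. coli strains, each edited to carry one amino-acid change in an essential protein, was grown for 48 h on minimal glucose agar with or without antibiotic; strain barcodes were sequenced; mean of two replicates.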

Row | Protein | fold change of barcode share
1 | B1 | 0.123 ± 0.033
2 | B2 | 0.62 ± 0.61
3 | B3 | 0.322 ± 0.36
4 | B4 | 0.394 ± 0.29
5 | B5 | 0.561 ± 0.17
6 | B6 | 0.217 ± 0.089
7 | B7 | 0.336 ± 0.031
8 | B8 | 0.157 ± 0.036
9 | B9 | 0.2 ± 0.021
10 | B10 | 0.242 ± 0.0031
11 | B11 | > 73 [active]
12 | B12 | 0.499 ± 0.095

Same assay, conditions: antibiotic: gentamicin; 2× MIC (MIC 0.45 µg/mL)

Row | Protein | fold change of barcode share
13 | B2 | < 0.015
14 | B3 | < 0.0101
15 | B4 | < 0.0143
16 | B5 | < 0.0129
17 | B6 | < 0.0107
18 | B7 | < 0.0123
19 | B8 | < 0.0131
20 | B9 | < 0.00973
21 | B10 | < 0.0169
22 | B12 | 0.00784 ± 0.0035
